Test results as given in paper PMC12820563, “FoxP3 forms a head-to-head dimer in vivo and stabilizes its multimerization on adjacent microsatellites”.
The other results are listed elsewhere or left out.

molecular target: T1, MBP-FoxP1dN (Mus musculus, UniProt P58462 326-579); assay: PD-seq (MBP pull-down with sequencing); 20 mM Tris-HCl pH 7.5, 100 mM NaCl, 1.5 mM MgCl2, 0.4 uM protein, 0.1 uM dsDNA library, 30 min, room temperature, amylose pull-down; high values mean tight binding; details: protein: recombinant; tags: His6-MBP; chain copies: 2; dsDNA, one strand shown
T1 sequence: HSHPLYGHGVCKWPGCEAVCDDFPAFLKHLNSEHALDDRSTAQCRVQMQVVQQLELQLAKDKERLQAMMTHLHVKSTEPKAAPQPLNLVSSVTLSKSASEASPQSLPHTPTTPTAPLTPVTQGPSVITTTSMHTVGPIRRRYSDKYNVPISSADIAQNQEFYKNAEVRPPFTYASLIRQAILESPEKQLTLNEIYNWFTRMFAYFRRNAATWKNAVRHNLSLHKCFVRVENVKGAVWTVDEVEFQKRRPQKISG
Method in brief: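 In Tris pH 7.5 buffer with NaCl and MgCl2, 0.4 µM His6-MBP-tagged mouse FoxP3 or FoxP1 fragment lacking the N-terminus, from E. coli, met 0.1 µM Klenow-filled double-stranded degenerate DNA library for 30 min at room temperature. Three washes on amylose resin followed capture of the complexes, then proteinase K release of DNA, PCR barcoding and Illumina sequencing. Binding is taken as pooled-replicate reads-per-million enrichment of pull-down relative to input.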

Sequence | binding signal
GATGATTGTTCTCCCAGCTGATGAATTTTTCGCCTCGAGTAAACAAATTTTCCTAATCTTTCTGTTCAAGCGCCATCTAC | 0.998 RPM ratio (pull-down/input)
GATGATTGTTCTCCCAGCTGATGAATTTTACCAGTCGAGTAAACAAATTTTCCTAATCTTTCTGTTCAAGCGCCATCTAC | 0.907 RPM ratio (pull-down/input)
GATGATTGTTCTCCCAGCTGATGAATTAGTCATTTCGAGTAAACAAATTTTCCTAATCTTTCTGTTCAAGCGCCATCTAC | 1.06 RPM ratio (pull-down/input)
GATGATTGTTCTCCCAGCTGATGAATTCTGACTTTCGAGTAAACAAATTTTCCTAATCTTTCTGTTCAAGCGCCATCTAC | 0.897 RPM ratio (pull-down/input)
GATGATTGTTCTCCCAGCTGATGAATTGCTTCGATCGAGTAAACAAATTTTCCTAATCTTTCTGTTCAAGCGCCATCTAC | 0.968 RPM ratio (pull-down/input)
GATGATTGTTCTCCCAGCTGATGAATTTTTATGGTCGAGTAAACAAATTTTCCTAATCTTTCTGTTCAAGCGCCATCTAC | 0.875 RPM ratio (pull-down/input)
GATGATTGTTCTCCCAGCTGATGAATTTAGGATGTCGAGTAAACAAATTTTCCTAATCTTTCTGTTCAAGCGCCATCTAC | 0.992 RPM ratio (pull-down/input)
GATGATTGTTCTCCCAGCTGATGAATTGTAGAGATCGAGTAAACAAATTTTCCTAATCTTTCTGTTCAAGCGCCATCTAC | 0.898 RPM ratio (pull-down/input)
GATGATTGTTCTCCCAGCTGATGAATTAGTTGTATCGAGTAAACAAATTTTCCTAATCTTTCTGTTCAAGCGCCATCTAC | 1.41 RPM ratio (pull-down/input)
GATGATTGTTCTCCCAGCTGATGAATTGAAGCGGTCGAGTAAACAAATTTTCCTAATCTTTCTGTTCAAGCGCCATCTAC | 0.79 RPM ratio (pull-down/input)
GATGATTGTTCTCCCAGCTGATGAATTGAATATCTCGAGTAAACAAATTTTCCTAATCTTTCTGTTCAAGCGCCATCTAC | 0.802 RPM ratio (pull-down/input)
GATGATTGTTCTCCCAGCTGATGAATTCTCATACTCGAGTAAACAAATTTTCCTAATCTTTCTGTTCAAGCGCCATCTAC | 0.821 RPM ratio (pull-down/input)
GATGATTGTTCTCCCAGCTGATGAATTCAGTGACTCGAGTAAACAAATTTTCCTAATCTTTCTGTTCAAGCGCCATCTAC | 0.872 RPM ratio (pull-down/input)
GATGATTGTTCTCCCAGCTGATGAATTCAAATTTTCGAGTAAACAAATTTTCCTAATCTTTCTGTTCAAGCGCCATCTAC | 0.86 RPM ratio (pull-down/input)
GATGATTGTTCTCCCAGCTGATGAATTGACTTTATCGAGTAAACAAATTTTCCTAATCTTTCTGTTCAAGCGCCATCTAC | 1.12 RPM ratio (pull-down/input)
GATGATTGTTCTCCCAGCTGATGAATTTACTGAGTCGAGTAAACAAATTTTCCTAATCTTTCTGTTCAAGCGCCATCTAC | 1.13 RPM ratio (pull-down/input)

Sequence | binding signal
GATGATTGTTCTCCCAGCTGATGAATTGAGCTTATCGAGTAAACAAATTTTCCTAATCTTTCTGTTCAAGCGCCATCTAC | 0.879 RPM ratio (pull-down/input)
GATGATTGTTCTCCCAGCTGATGAATTACTATCATCGAGTAAACAAATTTTCCTAATCTTTCTGTTCAAGCGCCATCTAC | 1.28 RPM ratio (pull-down/input)
GATGATTGTTCTCCCAGCTGATGAATTAGGGACTTCGAGTAAACAAATTTTCCTAATCTTTCTGTTCAAGCGCCATCTAC | 0.866 RPM ratio (pull-down/input)
GATGATTGTTCTCCCAGCTGATGAATTCGCGACATCGAGTAAACAAATTTTCCTAATCTTTCTGTTCAAGCGCCATCTAC | 0.942 RPM ratio (pull-down/input)
GATGATTGTTCTCCCAGCTGATGAATTAATCCGGTCGAGTAAACAAATTTTCCTAATCTTTCTGTTCAAGCGCCATCTAC | 0.792 RPM ratio (pull-down/input)
GATGATTGTTCTCCCAGCTGATGAATTCAACTTGTCGAGTAAACAAATTTTCCTAATCTTTCTGTTCAAGCGCCATCTAC | 0.871 RPM ratio (pull-down/input)
GATGATTGTTCTCCCAGCTGATGAATTATGGCTCTCGAGTAAACAAATTTTCCTAATCTTTCTGTTCAAGCGCCATCTAC | 0.843 RPM ratio (pull-down/input)
GATGATTGTTCTCCCAGCTGATGAATTCGACTTTTCGAGTAAACAAATTTTCCTAATCTTTCTGTTCAAGCGCCATCTAC | 0.873 RPM ratio (pull-down/input)
GATGATTGTTCTCCCAGCTGATGAATTGTGCATCTCGAGTAAACAAATTTTCCTAATCTTTCTGTTCAAGCGCCATCTAC | 1.66 RPM ratio (pull-down/input)
GATGATTGTTCTCCCAGCTGATGAATTACACAATTCGAGTAAACAAATTTTCCTAATCTTTCTGTTCAAGCGCCATCTAC | 1.68 RPM ratio (pull-down/input)
GATGATTGTTCTCCCAGCTGATGAATTCCAGTCATCGAGTAAACAAATTTTCCTAATCTTTCTGTTCAAGCGCCATCTAC | 0.893 RPM ratio (pull-down/input)
GATGATTGTTCTCCCAGCTGATGAATTGTTGAGTTCGAGTAAACAAATTTTCCTAATCTTTCTGTTCAAGCGCCATCTAC | 1.1 RPM ratio (pull-down/input)
GATGATTGTTCTCCCAGCTGATGAATTCGTATTATCGAGTAAACAAATTTTCCTAATCTTTCTGTTCAAGCGCCATCTAC | 1.36 RPM ratio (pull-down/input)
GATGATTGTTCTCCCAGCTGATGAATTGTTTTGATCGAGTAAACAAATTTTCCTAATCTTTCTGTTCAAGCGCCATCTAC | 2.01 RPM ratio (pull-down/input)
GATGATTGTTCTCCCAGCTGATGAATTCTGCCGATCGAGTAAACAAATTTTCCTAATCTTTCTGTTCAAGCGCCATCTAC | 0.83 RPM ratio (pull-down/input)
GATGATTGTTCTCCCAGCTGATGAATTAGCCTTATCGAGTAAACAAATTTTCCTAATCTTTCTGTTCAAGCGCCATCTAC | 0.917 RPM ratio (pull-down/input)
